From paper PMC4336329 (PLoS ONE, 2015) come the findings set out here.

In all, about 310,000 compounds went through this assay and about 2,200 (0.71%) showed an effect of 50% or more. The effect is printed as a negative number. Some of the results follow.

The target of the assay is human ether-à-go-go-related gene (hERG) potassium channel (human, UniProt Q12809). Kind of assay: primary screen, population patch clamp on CHO cells stably expressing hERG.
human ether-à-go-go-related gene (hERG) potassium channel, sequence (Q12809 whole entry, looked up): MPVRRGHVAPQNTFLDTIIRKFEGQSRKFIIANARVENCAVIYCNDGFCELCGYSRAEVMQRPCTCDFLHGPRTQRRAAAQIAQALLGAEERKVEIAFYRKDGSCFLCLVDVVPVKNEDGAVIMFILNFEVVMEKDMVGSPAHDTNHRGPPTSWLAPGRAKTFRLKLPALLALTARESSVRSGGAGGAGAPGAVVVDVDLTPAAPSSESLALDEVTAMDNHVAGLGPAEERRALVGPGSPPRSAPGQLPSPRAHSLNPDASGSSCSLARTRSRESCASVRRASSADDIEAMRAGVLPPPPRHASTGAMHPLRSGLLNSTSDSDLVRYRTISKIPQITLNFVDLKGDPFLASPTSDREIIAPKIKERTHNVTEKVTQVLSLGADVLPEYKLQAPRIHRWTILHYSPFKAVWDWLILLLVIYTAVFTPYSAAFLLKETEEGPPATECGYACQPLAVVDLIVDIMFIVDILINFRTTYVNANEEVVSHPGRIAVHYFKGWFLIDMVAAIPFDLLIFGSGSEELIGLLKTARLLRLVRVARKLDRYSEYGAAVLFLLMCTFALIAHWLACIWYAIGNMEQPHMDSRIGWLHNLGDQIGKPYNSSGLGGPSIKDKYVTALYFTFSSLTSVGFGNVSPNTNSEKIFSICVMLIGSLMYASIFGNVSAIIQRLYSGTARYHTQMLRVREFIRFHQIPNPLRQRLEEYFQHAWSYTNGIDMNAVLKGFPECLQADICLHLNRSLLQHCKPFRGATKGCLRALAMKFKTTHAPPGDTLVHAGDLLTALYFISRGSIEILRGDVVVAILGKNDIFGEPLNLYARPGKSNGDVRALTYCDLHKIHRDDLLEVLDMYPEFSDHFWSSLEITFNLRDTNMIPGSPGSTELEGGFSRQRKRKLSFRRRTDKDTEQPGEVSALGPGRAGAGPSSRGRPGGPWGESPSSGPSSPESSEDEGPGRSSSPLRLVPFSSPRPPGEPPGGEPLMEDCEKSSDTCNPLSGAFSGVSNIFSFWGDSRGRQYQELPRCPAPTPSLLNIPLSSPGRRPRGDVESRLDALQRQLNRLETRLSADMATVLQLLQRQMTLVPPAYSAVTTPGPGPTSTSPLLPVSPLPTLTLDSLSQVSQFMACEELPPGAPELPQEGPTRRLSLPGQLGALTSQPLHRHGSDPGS
`N/C(=N\OC(=O)Oc1ccccc1)c1ccc(Cl)cc1`: the “hERG current change (%, negative = inhibition) at 1uM” value was 10.6%. As for `O=C(CSCc1ccc(F)cc1)NCc1ccc2c(c1)OCO2`, the figure is 3.43%; as for `O=C(c1ccc2c(c1)OCO2)N1CCN(c2ccc(F)cc2)CC1`, -6.94%; as for `COc1ccc(CNCCC(c2ccccc2)c2ccc(OC(C)C)cc2)cc1OC` (stereo not drawn), -17.5%.

`COc1ccc2c(c1)C(C)CC(C)(C)N2C(=O)Nc1ccccc1` (stereo not drawn): the “hERG current change (%, negative = inhibition) at 1uM” value is listed as 14.8%. As for `CC(=O)Nc1cccc(OCC(=O)Nc2sccc2C(N)=O)c1`, the figure is 11.5%; as for `COC(=O)[C@@H]1C[C@@]2(O)[C@H](O)[C@H](O)[C@H](O)C[C@H]2N1CC(c1ccccc1)c1ccccc1`, 12.9%. For `Cc1cccc(N=Nc2c(O)[nH]c3ccc(Br)cc23)c1` the value was 11.4%. Turning to `CCc1cc(C(=O)COc2ccccc2F)c(O)cc1O`, the “hERG current change (%, negative = inhibition) at 1uM” value is 8.58%. For `O=C1COc2ccc(S(=O)(=O)N3CCCCC3)cc2N1` the value was 16.9%; for `Cc1cc(C)cc(NC(=O)CCCCCN2C(=O)[C@@H]3Cc4ccccc4CN3C2=O)c1`, -1.5%. Regarding `CCn1nc(NC(=O)c2ccco2)c2cc3ccccc3nc21`, the “hERG current change (%, negative = inhibition) at 1uM” value was determined as 9.82%. For `CC1CCN(CCCNC(=O)c2ccc(CS(=O)(=O)Cc3ccc(Cl)cc3)o2)CC1` the value was 9.6%; for `CCN1C(=O)CCCc2ccccc21`, 15.1%. For `NC(N)=N/N=C/c1ccc(OCc2ccccc2)c(OCc2ccccc2)c1` the value was 2.55%; for `CCCCCNC(=O)CCCCn1c(=O)[nH]c2cc(OCC)c(OCC)cc2c1=O`, 7.57%. As for `O=C(COC(=O)c1ccccc1-c1nc2ccccc2s1)NC1CCS(=O)(=O)C1` (stereo not drawn), the figure is 5.07%; as for `C=C(C)c1cccc(C(C)(C)NC(=O)Nc2cc(C)ccn2)c1`, 9.77%. As for `O=c1c2ccccc2ncn1-c1ccc(Cl)cc1`, the “hERG current change (%, negative = inhibition) at 1uM” value was found to be 14.1%. For `COCCCn1c(SCC(=O)O)nc2cc(OC)c(OC)cc2c1=N` the value was 11.6%. For `O=C(COc1ccc(Cl)cc1Br)NC1CC1` the value was 10.5%; for `CN(C)/C=C1/C(=O)Nc2ccccc21`, -0.29%; for `O=C1NCCN1CCN1C(=O)c2ccccc2NC1c1ccccc1` (stereo not drawn), -6.13%. As for `Cc1ccc(OCC(=O)NC(=S)Nc2cccc(NC(=O)c3ccccc3)c2)cc1`, the figure is 6.01%. Regarding `CC(O)C(=O)NCCOCCOCCNC(=O)C(C)O` (stereo not drawn), the “hERG current change (%, negative = inhibition) at 1uM” value is reported as 14.6%. As to `CCOC(=O)N1CCN(C(=O)CNC(=O)c2ccc(Cl)cc2)CC1`, the “hERG current change (%, negative = inhibition) at 1uM” value came out at 11.4%. As for `O=C(Cn1c(=O)oc2ccccc21)N1CCCCC1`, the figure is 12%; as for `COC(=O)c1ccc(C2C(C(=O)Nc3ccccc3C)=C(C)Nc3ncnn32)cc1` (stereo not drawn), 12.5%.

For `COc1cc(NS(=O)(=O)c2ccc(NC(=O)COc3ccc(C)cc3)cc2)nc(OC)n1`, the “hERG current change (%, negative = inhibition) at 1uM” value is on record as 5.67%. For `CCOC(=O)c1c(-c2ccccc2)oc2ccc(OCC(=O)NN)cc12` the value was 11.4%; for `COc1cccc(-c2nnc(SCN3C(=O)c4ccccc4C3=O)n2C)c1`, 4.94%; for `CCCc1cc(C(=O)Nc2ccc(CC)cc2)no1`, 9.13%. In the case of `O=C(NCc1ccc(Cl)cc1)C1C2C=CC3(CN(Cc4cccnc4)C(=O)C13)O2` (stereo not drawn), the “hERG current change (%, negative = inhibition) at 1uM” value was determined as 10.6%. For the compound `Cc1ccc(-c2nc(CS(=O)(=O)CC(=O)NCCCN3CCOCC3)c(C)o2)cc1`, the “hERG current change (%, negative = inhibition) at 1uM” value was found to be 9.19%. As for `COc1ccccc1NS(=O)(=O)c1cccc(NC(=O)C2CC2)c1`, the “hERG current change (%, negative = inhibition) at 1uM” value is reported as -0.73%.

Turning to `COc1ccccc1NC(=O)Nc1ccc(F)c(F)c1`, the “hERG current change (%, negative = inhibition) at 1uM” value is recorded as 9.79%. For `COc1ccc(CC(=O)Nc2cc(=O)n(C)c(=O)n2C)cc1` the value was 9.79%; for `CCOC(=O)/C(=N\Nc1ccc(C(C)=O)cc1)c1csc(Nc2ccccc2)n1`, 10.1%; for `c1nnc2c3c4c(sc3ncn12)CCC4`, 5.83%. Turning to `COC(=O)C(O)(CC(=O)Nc1ccc(OC(F)(F)F)cc1)C(F)(F)F` (stereo not drawn), the “hERG current change (%, negative = inhibition) at 1uM” value is 15.5%.

Turning to `CC(=O)c1cccc(OCC(=O)Nc2cccc(C(=O)Nc3c(C)n(C)n(-c4ccccc4)c3=O)c2)c1`, the “hERG current change (%, negative = inhibition) at 1uM” value was determined as 1.61%.

For the compound `COc1cccc(C(=O)NC23CC4CC(CC(C4)C2)C3)c1`, the “hERG current change (%, negative = inhibition) at 1uM” value is given as 13.9%. For `NC(=O)C(=O)NCCCN1CCOCC1` the value was 12.2%. As for `CCOC(=O)C1(Cc2cccc(Cl)c2)CCCN(C(=O)c2cc(C)[nH]n2)C1` (stereo not drawn), the figure is -7.02%.

Regarding `CC1CCN(CCCOc2ccc(Cl)cc2Br)CC1`, the “hERG current change (%, negative = inhibition) at 1uM” value is given as -45%.

On to `CCOc1ccc(S(=O)(=O)Nc2nc3ccccc3nc2-n2ccc(=NC(=O)c3ccccc3C)cc2)cc1`, for which the “hERG current change (%, negative = inhibition) at 1uM” value is recorded as 5.51%. In the case of `CCNc1nc(NC(C)C)nc(N(C#N)Cc2ccccc2)n1`, the “hERG current change (%, negative = inhibition) at 1uM” value worked out at 3.4%. As for `CC1(C)CC(=O)CC2(C1)NCC(c1ccccc1Cl)c1c2[nH]c2ccccc12.Cl` (stereo not drawn), the figure is -3.21%; as for `CCC(CO)Oc1cc(NCc2ccccc2Cl)c2ncn(C(C)C)c2c1` (stereo not drawn), 9.77%; as for `COc1cccc2[nH]c3c(N4CCCCC4)ncnc3c12`, -10.6%. As for `COc1ccc(/C=N/NC(C)(C)C)c(OC)c1.Cl`, the figure is 6.88%; as for `Cc1ccc2cc(CN(Cc3ccc4c(c3)OCO4)Cc3nnnn3Cc3ccco3)c(=O)[nH]c2c1`, 5.45%. For `CCOc1ccc(OCC)c(NC(=O)CSc2nnnn2CC)c1` the value was 0.711%.

`Nc1ccccc1C#CCCCCO`: the “hERG current change (%, negative = inhibition) at 1uM” value came to 7.71%. As for `O=C(Nc1ccc(Br)cc1)C1CCN(c2cnccn2)CC1`, the figure is 10.5%; as for `O=C1NC(=O)c2cc(NC(=O)C3CCCO3)ccc21` (stereo not drawn), -9.27%. As for `O=C(O)c1ccc(Oc2c(C(F)(F)F)oc3cc(O)ccc3c2=O)cc1`, the figure is 15.9%; as for `Cc1ccc(C2(C)CC(C)(C)N(C(=O)CSc3nnc(C)s3)c3ccccc32)cc1` (stereo not drawn), 10.3%; as for `COc1cc(C(=O)OC2C[C@H]3CC[C@@H](C2)N3)ccc1O` (stereo partly drawn), 7.14%. For `CC(=O)N(c1cccc(C)c1)S(=O)(=O)c1ccc(Cl)cc1` the value was 44.5%; for `Cc1ccccc1OCCn1cnc2cc([N+](=O)[O-])ccc2c1=O`, 9.4%; for `O=C(C[n+]1cccc(CNC(=O)c2ccc(OC(F)F)cc2)c1)Nc1cc(C(F)(F)F)ccc1Cl.[Cl-]`, 10.2%. Turning to `CCNc1nc2[nH]c(=O)c3c(c2s1)OC(N)=C(C#N)C3c1cccs1` (stereo not drawn), the “hERG current change (%, negative = inhibition) at 1uM” value is reported as 5.46%. As for `Cc1ccc2[nH]c(-c3ccccc3)c(CN3CCOCC3)c(=O)c2c1`, the figure is 1.51%; as for `CCOC(=O)C(NCc1ccc2c(c1)OCO2)(NC(=O)c1ccccc1)C(F)(F)F` (stereo not drawn), 3.68%. As for `CSCC[C@H](NC(=O)OC(C)(C)C)c1nnc(SCc2cccc(F)c2)o1`, the figure is -0.217%; as for `O=C(O)c1cc(NS(=O)(=O)c2ccc3ccccc3c2)ccc1O`, 10.8%. For `Nc1cc(Nc2ccccc2)c2nonc2c1[N+](=O)[O-]` the value was 14.6%; for `Cc1cccc(-c2nc(CS(=O)CC(=O)N3CCCCC3)c(C)o2)c1` (stereo not drawn), 19.5%; for `CC1(C)Cc2nc3nc(SCC(=O)Nc4ccccc4)nc(N)c3cc2CO1`, 12.9%.

Consider `S=C(NCCCN1CCOCC1)NCCCN1CCOCC1`, for which the “hERG current change (%, negative = inhibition) at 1uM” value came to 14.5%. Regarding `CNC(=S)N(CCc1c(C)[nH]c2ccc(C)cc12)Cc1ccc(OC)c(OC)c1`, the “hERG current change (%, negative = inhibition) at 1uM” value is 8.62%.

Consider `COc1ccc(N2CCN(S(=O)(=O)c3ccc(-n4cnnn4)c(C)c3)CC2)cc1`, for which the “hERG current change (%, negative = inhibition) at 1uM” value turned out to be 11.3%.

On to `CC(C)C(NS(=O)(=O)c1cccc2nsnc12)C(=O)NCCC1=CCCCC1` (stereo not drawn), for which the “hERG current change (%, negative = inhibition) at 1uM” value is on record as 1.65%. For `Fc1cccc(Cl)c1CN1CCN(c2nc3ccccc3s2)CC1` the value was 11.9%. As for `CC(C)NC(=O)NC(=O)CN1c2cccc3cccc(c23)S1(=O)=O`, the figure is 11.8%; as for `Cc1ccccc1OCC(=O)Nc1sc2c(c1C#N)CCC2`, -0.489%; as for `CN(C)CCOC1c2ccccc2-c2ccccc21.O=C(O)C(=O)O`, 12.2%. For `O=C1CCN(CCc2ccccc2)CCN1CCSc1ccc(Br)cc1` the value was -25.8%; for `CN1CCN(c2ccc(Cl)cc2NC(=O)C2COc3ccccc3O2)CC1` (stereo not drawn), -3.62%; for `CN(CC(=O)NCCc1ccc(F)cc1)Cc1ccc(Br)cc1`, 5.77%. With `Cc1nc(C(=O)NNC(=O)c2ccccc2)c(C(F)(F)F)o1`, the “hERG current change (%, negative = inhibition) at 1uM” value was determined as 12.6%. Take `O=C(C1CCN(c2ncnc3c2nc2n3CCCCC2)CC1)N1CCN(c2cccc(Cl)c2)CC1`: the “hERG current change (%, negative = inhibition) at 1uM” value came to 16.3%. For `COc1ccc2c(CC(=O)Nc3cccc(S(=O)(=O)N4CCOCC4)c3)coc2c1` the value was -13.3%; for `Cn1cc(/C(Cc2ccccc2)=N\O)c2ccccc21`, 9.46%; for `CCOc1ccccc1NC(=S)N1CCN(c2nc(-c3cccc(OC)c3)cs2)CC1`, 8.82%. Turning to `C(=N\Nc1nncc2ccccc12)/c1ccccc1`, the “hERG current change (%, negative = inhibition) at 1uM” value is 13.7%. For `COc1ccc(C(CNC(=O)C(=O)NC2CCCC2)N2CCN(C)CC2)cc1` (stereo not drawn) the value was -14.4%. As for `COc1ccc(-c2c(C)c3cc(O)ccc3oc2=O)cc1`, the figure is 13.2%; as for `COc1ccccc1-n1cnnc1SCC(=O)Nc1cccc(S(N)(=O)=O)c1`, 10.4%.
